± gives the standard deviation of the averaged measurements. Over roughly 33,000 sequences, “E-score (dimensionless, -0.5 to 0.5)” has its median near -0.049; the highest 2% begin near 0.37. The list shows a part of the results.
System: T1, PmTbr T-box DNA-binding domain (GST fusion)
T1 sequence: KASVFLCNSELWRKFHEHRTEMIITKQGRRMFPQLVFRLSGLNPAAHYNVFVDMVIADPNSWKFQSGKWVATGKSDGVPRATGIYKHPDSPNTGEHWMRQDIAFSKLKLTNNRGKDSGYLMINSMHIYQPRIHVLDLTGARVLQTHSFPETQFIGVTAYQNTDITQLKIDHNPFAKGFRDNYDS
Experiment: PBM E-score of 8-mer (E-score (dimensionless, -0.5 to 0.5)); Tbr is Tbrain of the sea star Patiria miniata (Pm) or the sea urchin Strongylocentrotus purpuratus (Sp); higher = stronger binding preference; most listed sequences are background and not binding sites
Details: the construct has about 5 more residues each side
In short: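 Universal Agilent oligonucleotide arrays, made double-stranded by primer extension, were incubated with 200 nM GST-fused Tbr T-box DNA-binding domain in PBS (pH 7.5). The protein was expressed in BL21 E. coli at 20 °C and purified by glutathione affinity chromatography. After scanning and quantification, the Universal PBM Analysis Suite assigned an enrichment E-score to each ungapped 8-mer, averaged over duplicate arrays.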

| Sequence | PBM E-score of 8-mer |
| --- | --- |
| AGTAATGA | -0.0763 ± 0.031 |
| CGCGCCTC | 0.3603 ± 0.00025 |
| GCCCGACC | -0.105 ± 0.095 |
| AGTAGATA | -0.329 ± 0.051 |
| AAGTCAGT | -0.245 ± 0.03 |
| AGTTGCCC | -0.177 ± 0.09 |
| GGGAAAAA | -0.042 ± 0.0054 |
| AGCCCACC | -0.301 ± 0.011 |
| ACATTGAT | 0.12 ± 0.068 |
| GAGGGCGA | 0.00116 ± 0.053 |
| CTGATTCC | -0.251 ± 0.0026 |
| CAGAGGTC | -0.0549 ± 0.0023 |
| CACGCCAC | 0.222 ± 0.04 |
| AAGCACGA | -0.11 ± 0.07 |
| AAAACAAA | -0.134 ± 0.11 |
| CGTCACGC | 0.296 ± 0.0071 |
| CCCGATCC | -0.197 ± 0.01 |
| GCATTTAC | 0.0608 ± 0.032 |
| AATAGTTG | 0.0382 ± 0.051 |
| ACACCAAA | 0.319 ± 0.013 |
| GCTGGAAC | -0.0508 ± 0.046 |
| GCACGTGC | 0.2695 ± 0.0011 |
| CGGATTCC | -0.04442 ± 0.00012 |
| AGGTAACC | -0.159 ± 0.038 |
| ATCTTTGA | -0.153 ± 0.033 |

| Sequence | PBM E-score of 8-mer |
| --- | --- |
| GCCGACAA | 0.116 ± 0.04 |
| AAGCCCGT | -0.241 ± 0.034 |
| CTTCAGCA | 0.044 ± 0.011 |
| AAGACTAG | -0.115 ± 0.024 |
| GTCTTGAA | -0.104 ± 0.061 |
| TAAAAACA | 0.0432 ± 0.083 |
| ACCCGATG | 0.0862 ± 0.066 |
| GCACAGCC | -0.192 ± 0.031 |
| CCAAACGC | -0.00129 ± 0.091 |
| TGGGTAAA | -0.193 ± 0.0075 |
| ACGTTGTG | 0.2261 ± 0.00085 |
| CGGCGACA | 0.273 ± 0.051 |
| AATGGGAG | -0.17 ± 0.027 |
| GACTCCGA | -0.194 ± 0.0059 |
| GAGAAATC | 0.0536 ± 0.11 |
| ACGTCTCC | -0.136 ± 0.022 |
| AATAAACA | 0.148 ± 0.041 |
| AGGTGGGA | 0.418 ± 0.01 |
| ACCGCTGA | -0.11 ± 0.026 |
| GGCATATA | -0.256 ± 0.055 |
| GTTCCAAA | -0.156 ± 0.071 |
| CTAGGGTA | -0.328 ± 0.063 |
| ACCTCGAC | 0.216 ± 0.043 |
| AATAGCAG | 0.0584 ± 0.0017 |
| AATCGGTG | -0.0247 ± 0.033 |

| Sequence | PBM E-score of 8-mer |
| --- | --- |
| ATTCTATC | -0.144 ± 0.022 |
| AGGACACC | 0.345 ± 0.027 |
| GATCATGC | -0.0264 ± 0.02 |
| AGCCGGTG | 0.0219 ± 0.0037 |
| ATCCTACC | -0.13 ± 0.02 |
| CTCGCAGA | 0.00155 ± 0.054 |
| ACGTCCAT | -0.04106 ± 4.2e-05 |
| GAGGGTAC | -0.11 ± 0.064 |
| AGGTGATC | 0.219 ± 0.0025 |
| GGAATTGA | -0.13189 ± 9.9e-05 |
| ACTAATGA | -0.144 ± 0.13 |
| GGGTTACA | -0.179 ± 0.0048 |
| ACGTATTA | -0.0687 ± 0.0068 |
| CACTCGTA | 0.0795 ± 0.0099 |
| TCCGCTCA | -0.184 ± 0.04 |
| ATTGAAAC | -0.158 ± 0.087 |
| GCACCTTA | 0.4187 ± 0.0021 |
| CAGGATTC | -0.0235 ± 0.064 |
| CGATCACG | 0.168 ± 0.025 |
| CGGCCACG | 0.0073 ± 0.043 |
| CGCGAAGC | 0.2393 ± 0.0015 |
| ACAGTCTC | 0.0743 ± 0.035 |
| AGCGCAGG | -0.163 ± 0.13 |
| ACTTAGAG | -0.0215 ± 0.051 |
| CGGACTAC | -0.213 ± 0.016 |

| Sequence | PBM E-score of 8-mer |
| --- | --- |
| CAGCAGGC | -0.125 ± 0.0037 |
| GTAGTCGA | -0.0608 ± 0.0079 |
| AGTACATG | -0.133 ± 0.045 |
| ACCTGACA | 0.29667 ± 0.00013 |
| GGGTGTAC | -0.0259 ± 0.052 |
| ATTACTGG | -0.132 ± 0.041 |
| ACTATGTG | 0.102 ± 0.042 |
| CCCAGTCA | -0.262 ± 0.073 |
| CCGGATCC | -0.271 ± 0.066 |
| ACTTCCGG | -0.0692 ± 0.034 |
| CAGCGGTC | -0.115 ± 0.056 |
| ACCTGAAA | 0.023 ± 0.055 |
| AAGGGAGC | 0.123 ± 0.0022 |
| GATAAAGC | 0.0553 ± 0.011 |
| AAGCATGT | -0.0455 ± 0.031 |
| CCGTCTGC | 0.141 ± 0.028 |
| AGCCAAAT | 0.00634 ± 0.039 |
| AAATGTCG | 0.0404 ± 0.0069 |
| ACAACGAG | 0.0277 ± 0.0065 |
| ATGCGGTA | -0.121 ± 0.02 |
| TATTACAA | 0.0194 ± 0.0049 |
| AATCTCAT | -0.0261 ± 0.042 |
| CTAGGGGA | -0.189 ± 0.022 |
| CAGTCACA | 0.339 ± 0.016 |
| CTGGTGTC | 0.341 ± 0.023 |

| Sequence | PBM E-score of 8-mer |
| --- | --- |
| CACAATCC | -0.0177 ± 0.053 |
| AAGGAGCA | -0.28 ± 0.022 |
| CTCGACAG | 0.244 ± 0.018 |
| ACTCACGA | 0.144 ± 0.023 |
| ATTTTTAG | -0.0822 ± 0.052 |
| CGGAAAGA | -0.139 ± 0.012 |
| GAGCTGCC | 0.123 ± 0.0068 |
| CCAAACTA | -0.138 ± 0.047 |
| AACGAACT | 0.0659 ± 0.024 |
| TCGTCGCA | 0.102 ± 0.051 |
| GACACTGC | 0.2169 ± 0.0019 |
| CCATAACC | 0.0419 ± 0.054 |
| ATGAGGCG | 0.184 ± 0.042 |
| ATCGGTTG | 0.0656 ± 0.046 |
| ACGATAGT | -0.0352 ± 0.053 |
| CTGGGGGC | -0.275 ± 0.0059 |
| AGCAATGA | 0.00566 ± 0.013 |
| GGAGTTCA | -0.0635 ± 0.036 |
| TGATCACA | 0.20944 ± 9.2e-05 |
| AGCAACGG | -0.163 ± 0.049 |
| CGAATTCA | -0.0114 ± 0.029 |
| CCTACGTA | -0.197 ± 0.035 |
| AAATGGCG | 0.0605 ± 0.034 |
| CTGGATCA | -0.111 ± 0.0046 |
| CGGCAATA | -0.0175 ± 0.065 |

| Sequence | PBM E-score of 8-mer |
| --- | --- |
| TAGAACTA | -0.0862 ± 0.013 |
| AGCCAGGC | -0.216 ± 0.046 |
| CAGTTCCG | -0.0851 ± 0.031 |
| AAATTTGG | -0.185 ± 0.14 |
| ATAAGCGC | 0.218 ± 0.0082 |
| ATGAGTCC | -0.202 ± 0.0074 |
| AGAGCCAT | -0.163 ± 0.06 |
| GCCAGTCC | -0.117 ± 0.051 |
| AGACCCCG | -0.0473 ± 0.033 |
| CTGCACTC | -0.0897 ± 0.008 |
| GACAAAGC | 0.0872 ± 0.0053 |
| AATGAGGG | -0.21 ± 0.035 |
| CTTGCACA | 0.148 ± 0.026 |
| CCCACGTC | -0.0655 ± 0.019 |
| CGCGGCAG | 0.0429 ± 0.039 |
| ACTGTTTC | -0.0724 ± 0.082 |
| AGCCCGAC | -0.126 ± 0.05 |
| ACCTATCT | 0.15 ± 0.034 |
| GATCGAGC | -0.253 ± 0.065 |
| GACCCCTA | -0.11 ± 0.035 |
| TATCGATA | -0.108 ± 0.068 |
| ACCTGGAT | 0.026 ± 0.0051 |
| AGCCTAAG | -0.108 ± 0.041 |
| ACGCGTAT | 0.147 ± 0.035 |
| GGAGTAGA | -0.154 ± 0.034 |

| Sequence | PBM E-score of 8-mer |
| --- | --- |
| GTTGTCTA | -0.1018 ± 0.00021 |
| ATCGACAG | 0.236 ± 0.032 |
| CACACAGA | -0.0151 ± 0.021 |
| AACCTATA | -0.0111 ± 0.13 |
| AGCTGGTC | -0.199 ± 0.037 |
| CGTCTAAG | -0.0183 ± 0.056 |
| CCAAGACG | -0.0419 ± 0.0058 |
| ACTGTCCA | -0.0882 ± 0.041 |
| CTTGTCGA | 0.182 ± 0.013 |
| AGTGGTCA | 0.0999 ± 0.044 |
| ATGAGGTC | -0.00428 ± 0.033 |
| CAAACGAA | -0.00967 ± 0.022 |
| CCACCCGG | 0.0506 ± 0.048 |
| AACAAACT | -0.102 ± 0.032 |
| ACTCAAAG | -0.0361 ± 0.027 |
| CCTCGACC | -0.0573 ± 0.087 |
| CTCAGCGA | 0.15 ± 0.068 |
| AGCAAGCC | -0.179 ± 0.019 |
| CCGGATGA | -0.278 ± 0.0076 |
| AAGCGTGA | 0.401 ± 0.018 |
| ACATGCAG | -0.0628 ± 0.047 |
| CTACCGAG | -0.0515 ± 0.0037 |
